Assay results reported in publication PMC4336329 (PLoS ONE, 2015).
About 2,200 (0.71%) of roughly 310,000 compounds showed an effect of 50% or more. Effects have a minus sign here. The list shows a part of the results.

Biological target: human ether-à-go-go-related gene (hERG) potassium channel (human, UniProt Q12809)
Assay: primary screen, population patch clamp on CHO cells stably expressing hERG

Sequence of human ether-à-go-go-related gene (hERG) potassium channel (Q12809 whole entry, looked up): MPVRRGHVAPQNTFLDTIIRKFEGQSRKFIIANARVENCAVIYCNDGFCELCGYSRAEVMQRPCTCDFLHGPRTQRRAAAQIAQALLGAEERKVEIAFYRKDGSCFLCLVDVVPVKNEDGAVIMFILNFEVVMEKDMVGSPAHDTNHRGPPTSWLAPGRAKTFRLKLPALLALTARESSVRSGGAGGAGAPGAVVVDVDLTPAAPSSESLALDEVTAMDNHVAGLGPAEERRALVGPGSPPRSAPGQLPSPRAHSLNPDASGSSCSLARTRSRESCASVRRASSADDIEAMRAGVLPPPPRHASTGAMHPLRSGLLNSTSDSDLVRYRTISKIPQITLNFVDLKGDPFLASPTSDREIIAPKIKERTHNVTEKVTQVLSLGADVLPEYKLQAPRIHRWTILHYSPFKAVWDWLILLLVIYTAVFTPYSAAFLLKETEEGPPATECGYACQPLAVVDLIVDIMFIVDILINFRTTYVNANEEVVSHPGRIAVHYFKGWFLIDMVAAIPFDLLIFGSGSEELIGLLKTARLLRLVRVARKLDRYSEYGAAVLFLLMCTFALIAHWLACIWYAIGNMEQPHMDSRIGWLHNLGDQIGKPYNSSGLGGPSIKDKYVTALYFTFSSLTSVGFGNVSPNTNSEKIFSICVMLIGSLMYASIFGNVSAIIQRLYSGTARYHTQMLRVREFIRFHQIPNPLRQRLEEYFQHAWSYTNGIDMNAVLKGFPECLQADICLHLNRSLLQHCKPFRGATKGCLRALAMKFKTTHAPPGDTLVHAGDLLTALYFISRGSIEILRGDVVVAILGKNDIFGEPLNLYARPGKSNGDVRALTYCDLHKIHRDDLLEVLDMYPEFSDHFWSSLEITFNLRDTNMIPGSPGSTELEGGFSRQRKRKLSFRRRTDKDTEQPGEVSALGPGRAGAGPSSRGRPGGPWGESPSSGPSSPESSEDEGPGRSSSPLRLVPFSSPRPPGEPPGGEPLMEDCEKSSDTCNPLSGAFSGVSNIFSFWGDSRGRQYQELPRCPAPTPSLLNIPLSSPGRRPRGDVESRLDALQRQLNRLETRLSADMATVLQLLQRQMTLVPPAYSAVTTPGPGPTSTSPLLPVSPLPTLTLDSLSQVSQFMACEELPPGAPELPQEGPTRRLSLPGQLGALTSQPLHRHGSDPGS

Row | SMILES | hERG current change (%, negative = inhibition) at 1uM
1 | Cc1ccccc1C1=NCC(=O)N(CC(=O)N2CCCCC2)c2sc(C)c(C)c21 | 2.96%
2 | CCO[C@H]1OC(C(=O)N2CCN(Cc3ccccc3)CC2)=C[C@@H](c2cn(C(C)=O)c3ccccc23)[C@@H]1CCCO | -4.49%
3 | C[N+](C)(C)CC(=O)N1CCN(c2ccc3ccccc3n2)CC1.[Cl-] | 14%
4 | CCn1ncc(Br)c1C(=O)Nc1ccc(F)c([N+](=O)[O-])c1 | -1.76%
5 | CC(OC(=O)CNC(=O)C12CC3CC(CC(C3)C1)C2)C(=O)Nc1ccc(S(N)(=O)=O)cc1 (stereo not shown) | 13%
6 | Cc1ccc(Nc2nc(N)nc(CSc3nccn3C)n2)c(C)c1 | 14.9%
7 | Cc1cc(OCCn2cnc3ccccc3c2=O)cc(C(C)C)c1 | 5.76%
8 | CC(=O)Nc1ccc(S(=O)(=O)N2CCN=C2SCc2ccc(C)cc2)cc1 | 10.4%
9 | CCCCCn1c(SCC(=O)OCC)nc2cc(C(=O)NCc3ccco3)ccc2c1=O | 12.8%
10 | CCCn1c2ccccc2c2cnn(CC(=O)NCCCN3CCCCC3)c(=O)c21 | 1.47%
11 | Cc1ccc(C2=C(c3ccc([N+](=O)[O-])cc3)C(=O)OC2)cc1C | -14.1%
12 | c1ccc(Nc2ccccc2)cc1 | 7.9%
13 | CC(=O)c1cccc(N=Nc2c(-c3ccccc3)[nH]n(-c3ccccc3)c2=O)c1 | 15.6%
14 | COc1ccc(OC)c(CCNC(=O)Cn2ccc3cc(S(=O)(=O)N4CCCC4)ccc32)c1 | 19%
15 | Cc1ccc(-c2ccc(=O)n(CCC(=O)N3CCN(c4cccc(C)c4)C(C)C3)n2)cc1 (stereo not shown) | 8.76%
16 | CCCCOc1ccc(N(CC(=O)NC(C)(C)C)C(=O)CCC(=O)Nc2nccs2)cc1 | 4.85%
17 | Cc1ccccc1C(=O)NC(=S)NCCC1=CCCCC1 | 11.7%
18 | CCN(CC(=O)Nc1ccc2c(c1)OCCO2)c1ccc(S(=O)(=O)N2CCOCC2)cn1 | 14.2%
19 | O=C(O)c1cn(Cc2ccccc2)c2ccc(Cl)cc2c1=O | -84.4%
20 | COCCn1c(N)c(C(=O)NCc2cccs2)c2nc3ccccc3nc21 | 6.75%
21 | Cc1nc(N2CCC(C)CC2)c2c(C)c(C(=O)Nc3cc(F)ccc3C)sc2n1 | 8.33%
22 | CS/C(=N\S(=O)(=O)c1cccs1)Nc1ccc(N2CCOCC2)cc1 | 9.03%

Row | SMILES | hERG current change (%, negative = inhibition) at 1uM
23 | CCc1nnc(NC(=O)c2ccc(-c3ccc(F)cc3)o2)s1 | 7.51%
24 | COc1ccccc1NCC(=O)N/N=C(\C)c1cccs1 | 9.31%
25 | COc1cccc(CN2CCN(Cc3nc4c(s3)CCCC4)CC2CCO)c1 (stereo not shown) | -16%
26 | CCN(CC(=O)N1CCCCCC1)S(=O)(=O)c1ccc(C)cc1 | 19.6%
27 | O=C1OC(c2ccccc2)=NC12CC2c1ccc(Cl)cc1 (stereo not shown) | 0.408%
28 | O=C(CSc1nnc(C2COc3ccccc3O2)o1)Nc1nccs1 (stereo not shown) | 6.28%
29 | COc1cccc(/C=N/NC(=O)C(=O)Nc2ccccc2OC(F)(F)C(F)F)c1O | 10.3%
30 | Cc1ccc(NC(=O)CSc2nnc(-c3cc(C)[nH]n3)n2N)c(C)c1 | 3.36%
31 | C/C(CC(=O)Nc1ccccc1F)=N\NC(=O)Cc1ccc(Cl)cc1 | 9.61%
32 | CCn1nnnc1NCc1cccn1C | 19.7%
33 | CCOC(=O)C1CCCN(C(=O)c2cc(-c3ccccc3)on2)C1 (stereo not shown) | 3.94%
34 | CC1CCCC(NCC(=O)Nc2ccc(C(N)=O)cc2)C1C (stereo not shown) | 5.23%
35 | COc1cc(NC(=O)C2CC(=O)N(Cc3ccco3)C2)cc(OC)c1 (stereo not shown) | 2.39%
36 | CCN(C(=O)COC(=O)c1ccccc1SCC(=O)NC1CCCCCCC1)C1CCS(=O)(=O)C1 (stereo not shown) | 4.61%
37 | Cc1nc2ccccc2nc1OCC(=O)NCC(F)(F)F | 12.9%
38 | COc1cccc(CCc2nc3ccccc3c(=O)n2N)c1 | 10.6%
39 | Cc1sc2nc(-c3ccccn3)[nH]c(=O)c2c1-c1ccccc1 | 21.8%
40 | CCOCCN1CCN(c2nnc3n2-c2ccc(Cl)cc2C(c2ccccc2Cl)=NC3)CC1.O=CO | -57.6%
41 | CC(C)[C@H](N)c1nnc2n1N=C(c1ccc(Cl)cc1)CS2.Cl | 8.31%
42 | CCOc1cc2[nH]c(=O)n(CCCCC(=O)NC3CCCCCC3)c(=O)c2cc1OCC | 4.74%
43 | CC(OC(=O)C1CC(=O)N(Cc2ccco2)C1)C(=O)Nc1ccccc1[N+](=O)[O-] (stereo not shown) | -9.36%
44 | O=C(CSc1nnc(NC(=O)c2cccc(F)c2)s1)NCC1CCCO1 (stereo not shown) | 13.3%

Row | SMILES | hERG current change (%, negative = inhibition) at 1uM
45 | CCOc1cccc(N2C(=O)CC(N3CCN(c4ccc(S(=O)(=O)CC)cc4)CC3)C2=O)c1 (stereo not shown) | 9.61%
46 | CCCCCCC(=O)N/N=C/c1c(O)n(C2CC2)c(=S)[nH]c1=O | 8.68%
47 | COc1ccc(Cl)cc1NC(=O)CN(C)Cc1ccc(OC)c(OC)c1 | -1.46%
48 | CCCCN(CCCC)S(=O)(=O)c1ccc(N2CCCC2=O)c([N+](=O)[O-])c1 | 8.28%
49 | O=C(Nn1cnnc1)c1ccc([N+](=O)[O-])cc1Cl | 9.39%
50 | Cl.O=C(CSc1nc2ccccc2[nH]1)N1CCN(C(=O)c2ccco2)CC1 | -1.54%
51 | CC(C)NP(=O)(NC(C)C)OP(=O)(NC(C)C)NC(C)C | 8.33%
52 | N#C/C(=C\c1ccc(-c2cccc([N+](=O)[O-])c2)o1)c1nnc(N2CCOCC2)n1-c1ccccc1 | 2.99%
53 | COc1ccc(C2=NCCn3cccc32)c(OC)c1 | -7.59%
54 | CCN(C(=O)COC(=O)c1[nH]c(C)c(C(C)=O)c1C)C1CCS(=O)(=O)C1 (stereo not shown) | -0.793%
55 | O=C(CSc1nccc(=O)[nH]1)N1c2ccccc2CCc2ccccc21 | 15%
56 | COC(=O)c1ccc(NC(=O)c2cn(-c3ccccc3)nc2-c2ccncc2)cc1 | 3.71%
57 | CCc1nnc(SCc2ccc(C(=O)OC)o2)n1N.Cl | 14.7%
58 | COc1cc(OC)cc(C(=O)N[C@H](C(=O)NCCc2c[nH]c3ccccc23)C(C)C)c1 | 9.87%
59 | C=CCOC(=O)CCCC(=O)NC1CCCCC1 | 2.48%
60 | O=S(=O)([N-]c1nc2ccccc2nc1-[n+]1ccccc1)c1ccc(F)cc1 | 12.1%
61 | CNC(=O)/C(C#N)=C1\SC(Cc2ccc(F)cc2)C(=O)N1c1ccccc1C (stereo not shown) | 4.1%
62 | CCOC(=O)N1CCN(S(=O)(=O)/C=C/c2ccccc2)CC1 | -10.2%
63 | CC(Oc1ccccc1F)C(=O)NNC(=O)CCS(=O)(=O)c1ccccc1Cl (stereo not shown) | -4.95%
64 | Cc1cc2occ(CC(=O)Nc3nnc(C4CC4)s3)c2cc1C | 9.49%
65 | CCN1CCN(S(=O)(=O)c2ccc(Cl)c(C(=O)N(C)Cc3ccccc3)c2)CC1 | 1.46%
66 | Cc1cc(C)n2nc(C(=O)OCC(=O)NC(=O)c3ccccc3)nc2n1 | 12.1%

Row | SMILES | hERG current change (%, negative = inhibition) at 1uM
67 | CC1=C(C(=O)OC2CCCCC2)C(c2ccccc2F)NC(=O)N1 (stereo not shown) | 14.9%
68 | NNC(=O)c1csc(-c2ncc(C(F)(F)F)cc2Cl)n1 | 11%
69 | COc1ccc(C)cc1NC(=O)C(=O)NCc1ccncc1 | 9.54%
70 | O=C(NCc1ccc(Cl)cc1)c1cc2ccccc2oc1=O | 9.53%
71 | O=C(Cc1ccsc1)NNC(=O)c1cccc(Cl)c1 | 14.3%
72 | CCOC(=O)N1CCN(C(=O)c2cn(C)c3ccc(S(=O)(=O)N4CCC(C)CC4)cc3c2=O)CC1 | 5.1%
73 | CCSc1nnc(C(N)Cc2ccccc2)o1.Cl (stereo not shown) | 24.5%
74 | CCOC(=O)c1ccc(NCc2ccc3c(c2)OCO3)cc1 | 16.1%
75 | CS(=O)(=O)Cc1nc2ccccc2oc1=O | 13.7%
76 | CCOc1cc(C(=O)N2CCN(c3ccccc3)CC2)cc(OCC)c1OCC | 10.4%
77 | COc1ccc(-c2cc(=O)oc3c(C)c(OCC(=O)Nc4cccnc4)ccc23)cc1 | 19.8%
78 | O=C(CN1c2cccc3cccc(c23)S1(=O)=O)Nc1ccccc1F | 18.6%
79 | Cc1ccc(N2C(S)=C(C#N)C(=O)NC23CCCCC3)cc1 | 13.9%
80 | CC1CCCN(CC(O)COc2ccc(S(=O)(=O)N3CCCC3)cc2[N+](=O)[O-])C1 (stereo not shown) | 8.33%
81 | CCn1nc(C(=O)Nc2cccc(C(F)(F)F)c2)c(Cl)c1Cl | 19.2%
82 | CCN(CCn1cccn1)C(=O)C1CCC(=O)N(CC2CCCCC2)C1 (stereo not shown) | 13.2%
83 | Cn1c(N)c(C(=O)COC(=O)Cc2ccsc2)c(=O)n(C)c1=O | 0.0047%
84 | O=C(CSc1nnnn1-c1cccnc1)Nc1ccc(F)cc1F | 11.1%
85 | COc1cc(CN(CCc2c(C)[nH]c3ccc(C)cc23)C(=S)NC(C)(C)C)cc(OC)c1OC | 10.4%
86 | CCC(C(=O)Nc1cccnc1)c1ccccc1 (stereo not shown) | 13.6%
87 | CC1CCN(C(=O)CCl)CC1 | 2.62%
88 | COc1ccc(N2CCN(C(=O)CN(CCc3ccccc3)S(C)(=O)=O)CC2)cc1 | -0.846%
